Source: ChEMBL document CHEMBL4888484, “Replenishing the malaria drug discovery pipeline: Screening and hit evaluation of the MMV Hit Generation Library 1 (HGL1) against asexual blood stage Plasmodium falciparum ,using a nano luciferase reporter read-out” (2022)
The whole screen tested about 150,000 compounds, of which about 540 (0.36%) showed an effect of 50% or more. This is one part of the list.

Tested on: Plasmodium falciparum
Test: Primary screen in NF54 nanoGlo assay, in single point, at 2uM, 72h; a lower Z score goes with more inhibition
Type: functional, Erythrocyte
Details: timepoint 72 hour

Row | Compound | % Inhibition | Z score
1 | CCc1cccc2c(C3CCN(C(=O)c4cncnc4N)CC3)c[nH]c12 | -6% | 0.57
2 | CCC(CC)(CN(CC(CC)(CC)OC)C(=O)c1cn(C)c(=O)[nH]c1=O)OC | -9% | 1.25
3 | C[C@@H](c1cccnc1)N(C)Cc1ncccc1C(F)(F)F | 6% | -0.88
4 | C[C@H](NS(=O)(=O)c1cc(S(C)(=O)=O)ccc1Cl)C(N)=O | -6% | 0.71
5 | O=S(=O)(Nc1ccc(-n2cncn2)nc1)c1ccc2c(c1)OCCCO2 | 9% | -1.27
6 | COCC(NC(=O)N1CCCC(C)(O)CC1)c1ccc(Cl)cc1 (stereo unspecified) | -12% | 1.66
7 | Cc1noc2ncnc(N3CCC[C@H](C(=O)N4CCCc5ccccc54)C3)c12 | -3% | 0.61
8 | CCOc1nnc(CN2C[C@@H]3CN(c4nc5ccccc5o4)C[C@]3(C)C2)s1 | -2% | 0.3
9 | CC(C)N(CC(=O)N(Cc1ccc(F)cc1)Cc1cccs1)C(=O)c1ccc(Cl)cc1 | 14% | -1.58
10 | O=C(OCC(=O)N1CCNC1=O)c1ccc(-c2ccccc2)cc1 | -6% | 1.02
11 | Cc1noc2ncnc(NC(C)(C)CO)c12 | -12% | 2.02
12 | Cc1cc(C(=O)N2CC(Oc3ccccc3F)C2)cc(=O)[nH]1 | -6% | 1.04
13 | CC(C)N1C(=O)C[C@H](N2CCN(Cc3ccccc3)CC2)C1=O | -1% | 0.15
14 | CC1CN(C(=O)CN2CCCC2c2nc3ccccc3s2)CCO1 (stereo unspecified) | 2% | -0.38
15 | N#Cc1cccnc1NCc1cnn2c1CCCC2 | -21% | 2.6
16 | COCC1(Cn2cnc3nccnc3c2=O)CCC1 | 0% | -0.03
17 | CCN(CC(=O)Nc1nc(-c2ccccc2)cn1-c1ccc(C)c(F)c1)C(=O)c1cccc(OC)c1 | -4% | 0.82
18 | CCOc1ccc(Nc2cc(C(=O)N3CCC(C)CC3)nc3ccc(F)cc23)cc1 | -6% | 0.72
19 | CC(C)(Cc1ccc(F)cc1)N1Cc2ncccc2C1=O | -12% | 1.53
20 | Cc1c(NC2CCC(C)CC2n2cncn2)cnn1C (stereo unspecified) | 2% | -0.24
21 | O=C(CCc1cccc(Cl)c1)N1CCC(n2c(=O)[nH]c3ccc(F)cc3c2=O)CC1 | -9% | 1.16
22 | COc1cc(C2CN(C(=O)C3CCCC3)CC2C(=O)NCC(C)C)cc(OC)c1OC (stereo unspecified) | -5% | 0.73
23 | CC[C@H](C)NC(=O)c1ccc(F)cc1Cl | -10% | 1.55
